Consider 1 molecule from article PMC3047500 (Nature immunology, 2010).

The experiment concerns the target T1, TACI (human primary naive B cells) (human (endogenous in primary B cells), UniProt O14836 1-293).
T1 sequence: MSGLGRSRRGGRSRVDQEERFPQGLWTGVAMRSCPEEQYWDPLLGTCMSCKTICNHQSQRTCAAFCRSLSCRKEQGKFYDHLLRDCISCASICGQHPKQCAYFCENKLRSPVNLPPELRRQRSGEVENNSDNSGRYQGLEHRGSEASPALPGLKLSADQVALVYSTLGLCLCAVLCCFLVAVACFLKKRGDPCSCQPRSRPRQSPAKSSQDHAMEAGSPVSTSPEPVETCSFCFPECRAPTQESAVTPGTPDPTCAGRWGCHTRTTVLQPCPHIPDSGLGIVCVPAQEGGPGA
In words: co-IP.

B1: MyD88 (human primary naive B cells) (natural protein)
chain: MAAGGPGAGSAAPVSSTSSLPLAALNMRVRRRLSLFLNVRTQVAADWTALAEEMDFEYLEIRQLETQADPTGRLLDAWQGRPGASVGRLLELLTKLGRDDVLLELGPSIEEDCQKYILKQQQEEAEKPLQVAAVDSSVPRTAELAGITTLDDPLGHMPERFDAFICYCPSDIQFVQEMIRQLEQTNYRLKLCVSDRDVLPGTCVWSIASELIEKRCRRMVVVVSDDYLQSKECDFQTKFALSLSPGAHQKRLIPIKYKAMKKEFPSILRFITVCDYTNPCTKSWFWTRLAKALSLP
Regarding B1, the “fold increase of association after APRIL (15 min) against unstimulated cells” value turned out to be 2 fold.
